# Data taken from publication PMC4336329 (PLoS ONE, 2015).
# Among all 310,000 compounds or so, about 14,000 (4.5%) showed an effect of 50% or more. Effects have a minus sign here. The list shows a part of the results.
# Target: human ether-à-go-go-related gene (hERG) potassium channel (human, UniProt Q12809)
# Assay: primary screen, population patch clamp on CHO cells stably expressing hERG
# 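Further: peak tail current of the secondary pulse compared with the same well before compound.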
# Chain of human ether-à-go-go-related gene (hERG) potassium channel (Q12809 whole entry, looked up): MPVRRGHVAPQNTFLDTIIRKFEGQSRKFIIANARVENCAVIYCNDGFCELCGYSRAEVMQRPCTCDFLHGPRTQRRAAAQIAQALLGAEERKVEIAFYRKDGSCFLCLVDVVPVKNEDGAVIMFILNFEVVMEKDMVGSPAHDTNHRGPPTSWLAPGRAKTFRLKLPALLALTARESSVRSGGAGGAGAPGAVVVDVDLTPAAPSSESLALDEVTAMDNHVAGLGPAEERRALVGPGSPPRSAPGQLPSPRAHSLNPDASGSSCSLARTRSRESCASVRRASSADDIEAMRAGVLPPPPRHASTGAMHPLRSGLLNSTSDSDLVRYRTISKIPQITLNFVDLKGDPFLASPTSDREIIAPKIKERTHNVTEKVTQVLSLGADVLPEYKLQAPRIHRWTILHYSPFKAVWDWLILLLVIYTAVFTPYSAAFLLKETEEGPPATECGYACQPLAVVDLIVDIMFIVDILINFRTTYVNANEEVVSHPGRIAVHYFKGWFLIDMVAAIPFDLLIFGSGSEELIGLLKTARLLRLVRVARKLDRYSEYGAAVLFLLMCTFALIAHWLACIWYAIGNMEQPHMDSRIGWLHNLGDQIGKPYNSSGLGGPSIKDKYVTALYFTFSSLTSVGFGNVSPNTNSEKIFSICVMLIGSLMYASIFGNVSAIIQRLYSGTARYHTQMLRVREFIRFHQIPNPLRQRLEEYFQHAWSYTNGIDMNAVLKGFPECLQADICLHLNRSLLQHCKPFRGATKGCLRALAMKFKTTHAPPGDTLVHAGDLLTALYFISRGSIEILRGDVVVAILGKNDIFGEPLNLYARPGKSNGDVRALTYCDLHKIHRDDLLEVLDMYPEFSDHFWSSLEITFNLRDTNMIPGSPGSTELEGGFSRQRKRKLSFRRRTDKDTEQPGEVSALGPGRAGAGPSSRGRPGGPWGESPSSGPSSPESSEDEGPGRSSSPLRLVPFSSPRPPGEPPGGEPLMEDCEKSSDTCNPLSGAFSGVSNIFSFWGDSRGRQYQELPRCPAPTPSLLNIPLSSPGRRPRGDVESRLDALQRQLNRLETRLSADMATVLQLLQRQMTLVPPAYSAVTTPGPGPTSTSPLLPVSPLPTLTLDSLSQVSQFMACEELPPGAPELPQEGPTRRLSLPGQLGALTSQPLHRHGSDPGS
row,Structure (SMILES),"hERG current change (%, negative = inhibition) at 10uM [%]"
1,CC(Cc1cccnc1)NC(=O)CCc1nnc(-c2ccccc2)o1 (stereo not drawn),12.9
2,C[C@@H](CO)NC(=O)c1ccc2c3n(nc2c1)-c1ccccc1CO3,9.12
3,Cc1ccc(C)c(OCC(=O)N2CCOCC2)c1,4.81
4,O=C(CN1CCCC1)Nc1ccc(Cl)cc1C(=O)c1ccccc1.O=C(O)C(=O)O,-46.8
5,Cc1ccc(OCCOc2cccc(C=C3C(=O)NC(=O)NC3=O)c2)cc1,21.5
6,C=CCNC(N)=S,22.5
7,Cc1nc(N)sc1C(=O)N/N=C/c1cccnc1,19.7
8,COc1ccccc1N1CCN(S(=O)(=O)c2cc(Br)cnc2N)CC1,6.94
9,CCOc1ccc2[nH]c(=O)c(CN(CCN3CCCC3)C(=S)Nc3ccccc3OC)cc2c1,-49.7
10,COC(=O)c1nc2nc(-c3cccs3)cc(C(F)(F)F)n2n1,14.9
11,O=C(Cc1cccs1)NCc1ccco1,4.54
12,COc1ccc(Cl)cc1NC(=O)c1ccoc1C,4.3
13,CCOc1ccccc1NC(=O)CSc1nnc(-c2ccccc2Cl)n1Cc1ccco1,-32
14,CCOC(=O)C1=C(COC(=O)/C=C/c2cccc(OC)c2OC)NC(=O)NC1C (stereo not drawn),8.07
15,COc1ccc(CNC(=O)C2CC(=O)N(C3CCCCC3)C2)cc1 (stereo not drawn),13.7
16,O=C(O)c1cc(S(=O)(=O)Nc2cccc3ccccc23)c(Cl)cc1Cl,18.4
17,N#Cc1ccccc1NC(=O)COc1c(Br)cc(Br)c2cccnc12,4.2
18,COc1cccc(-c2ocnc2C(=O)Nc2ccc3c(c2)CCC3)c1,6.88
19,CCC(NC(=O)c1ccc([N+](=O)[O-])cc1[N+](=O)[O-])c1ccccc1 (stereo not drawn),-56

row,Structure (SMILES),"hERG current change (%, negative = inhibition) at 10uM [%]"
1,COc1ccccc1Cc1nc(-c2ccncc2)no1,11.8
2,O=S1(=O)C=C(SCCN2CCCCC2)c2ccccc21,-28
3,CN(CC(=O)Nc1ccc(Cl)c(C(F)(F)F)c1)C(=O)c1ccc2c(c1)NC(=O)CS2,-12.7
4,COc1cc(C(=O)OCC(=O)N(C)Cc2ccccc2)cc(OC)c1OC,1.05
5,CCCCNC(=O)C12CCC(C)(C(=O)C1Br)C2(C)C (stereo not drawn),-3.64
6,O=C(c1cccc(Br)c1)N1CCCC1,0.701
7,CCOC(=O)c1[nH]c2cc3c(cc2c1NC(=O)CN1CCC(C)CC1)OCO3,-6.85
8,C[N+](C)(C)CCN(Cc1ccc(Cl)cc1)c1ccccn1.[I-],-14.4
9,Cc1sc2nc(CSc3ccccc3)nc(N3CCN(C)CC3)c2c1C,-58.5
10,CCOc1ccc(N(CC(=O)NC2CCCCC2)S(=O)(=O)c2c(C)noc2C)cc1,2
11,CCOc1c2c(nc3ccc(Cl)cc13)CCC2,11.3
12,O=C(CSc1nnnn1-c1ccc2c(c1)OCCO2)OC1CCCCC1,-8.13
13,Cc1ccc(CNC(=O)CCc2ccc(S(=O)(=O)NC3CCCCC3)cc2)cc1,17.4
14,COc1cc(OC)cc(C(=O)N/N=C2/SCC(=O)N2Cc2ccco2)c1,-12.2
15,CCCCNc1c2c(nc3c(-c4ccccc4)c(C)nn13)CCC2,-3.59
16,CCOc1ccc(NC(=O)c2sc3nc(C)nc(N4CCOCC4)c3c2C)cc1,-50.7
17,CC1CCCC(C)N1C(=O)CSc1nnc(CSc2ncccn2)n1C (stereo not drawn),9.02
18,CCC(=O)c1cn([C@H](CCC(OC)OC)CC(=O)OC(C)(C)C)cc1CC,8.38
19,Cc1ccc(NC(=O)c2ccc(S(=O)(=O)N3CCC(C)CC3)cc2)cc1,-5.78

row,Structure (SMILES),"hERG current change (%, negative = inhibition) at 10uM [%]"
1,CCCN(CC(=O)Nc1ccccc1C)C(=O)c1ccc(-c2ccc(C(C)=O)cc2)o1,-15.8
2,CCN(CC)S(=O)(=O)c1cc(C(=O)Nc2cccnc2Cl)ccc1Cl,8.87
3,CNC(C)CCC=C(C)C.O=C(O)C(O)C(O)C(O)C(O)C(=O)O (stereo not drawn),15.3
4,CCCCN1C[C@H](Cc2ccccc2)[C@@H](CC(=O)NCc2ccc(OC)cc2)C1=O,-61.8
5,COc1cc(/C=N/N(C)C)ccc1OC(=O)c1ccco1,50.4
6,CC(C(=O)O/N=C(\N)c1cccnc1)c1ccc([N+](=O)[O-])cc1 (stereo not drawn),-56.8
7,CCc1cccc(NC(=O)CCc2c(C)nn(-c3ccc(N4CCCCC4)nn3)c2C)c1,-19
8,c1ccc(CSc2nnc(-c3ccco3)o2)cc1,13
9,COc1ccc(CNn2c(C)nc3ccccc3c2=O)cc1,-6.38
10,C/C(=N/O)c1ccc2ccc3ccccc3c2c1,-2.53
11,COCCNC(=O)Cn1c(=O)n(CCCCCC(=O)Nc2ccccc2)c(=O)c2sccc21,-27.4
12,O=C(NCCCN1CCOCC1)c1ccc(N2CCCC2)c([N+](=O)[O-])c1,-16.8
13,CC(C(=O)NC(C)(C)C)N(C(=O)CS(=O)CC(=O)Nc1ccc(F)cc1)c1ccccc1F (stereo not drawn),19
14,CCc1ccc[n+](-c2nc([O-])sc2C=O)c1,10.1
15,O=C(O)CCCC(=O)N(Cc1ccccc1)Cc1ccccc1,30.4
16,Cc1ccc(NC(=O)c2oc3ccc(S(=O)(=O)N4CCOCC4)cc3c2C)c(C)c1,5.03
17,O=C(COc1ccc(Cl)cc1)Nc1nnc(C2=COCCO2)o1,11.3
18,C/C(CC(=O)Nc1ccc(N(C)C)cc1)=N\NC(=O)c1ccc(Cl)cc1Cl,-5.01
19,COc1ccc(NC(=O)c2cc(-c3ccc(OC)c(OC)c3)nc3ccccc23)c(OC)c1,4.92
